Measurements as given in PubChem BioAssay AID504845 (National Center for Advancing Translational Sciences (NCATS), 2011).
Among all 390,000 compounds or so, about 150 (0.038%) were called active. The shares of active, inactive and inconclusive entries below differ from those in the screen. Calls follow the shape of the dose curve; as a rule, active = well fitted inhibition curve with a large enough effect; inconclusive = small, poorly fitted or top-dose-only effect; inactive = no such curve, though single readings can be large or run the other way. Potencies beside an inconclusive call are fits to weak or partial responses and may not hold up.

target: Regulator of G-protein signaling 4 (Homo sapiens) (UniProt P49798); assay: Inhibitors of Regulator of G Protein Signaling (RGS) 4: qHTS; details: Transcreener GDP fluorescence polarization, RGS4-accelerated GTP hydrolysis; series mostly up to 114 µM; also: nearly all actives have a fitted effect of over 75% in size
How it was run: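 MLSMR compounds (23 nl, pin-transferred) preincubated 10 min at room temperature with a 500nM (2x) first reagent, then RGS4 at 900nM (2x) plus Transcreener GDP mix added; fluorescence polarization (620/688 nm) read before and after 90 min at 30 °C.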
% is scaled to controls: 0 for no effect and ±100 for the full control effect; potency is read from the fitted curve at half-maximal effect; tags tell the direction and shape of the fitted curve.

Sequence of UniProt P49798 (P49798 whole entry, looked up): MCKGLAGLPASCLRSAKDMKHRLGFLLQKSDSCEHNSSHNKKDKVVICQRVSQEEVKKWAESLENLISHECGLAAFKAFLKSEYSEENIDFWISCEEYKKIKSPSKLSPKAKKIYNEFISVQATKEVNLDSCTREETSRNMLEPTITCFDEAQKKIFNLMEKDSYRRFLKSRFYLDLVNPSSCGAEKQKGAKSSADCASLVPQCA

| Structure (SMILES) | Potency | activity change, negative = inhibition |
| --- | --- | --- |
| Cc1nnc2c(NC3CCCC3)nc3ccccc3n12 | inconclusive: 79.4 µM [inhibitor, single point] | – |
| C=CCn1c(SCC)nc2sc3c(c2c1=O)CCc1ccccc1-3 | inactive | – |
| COc1ccc(-c2cc(=O)c(C(=O)c3ccc(C)cc3)n[nH]2)cc1 | inconclusive: 100 µM [inhibitor, partial curve, poor fit] | – |
| CCc1cccc(CC)c1NC(=O)COC(=O)Cc1ccsc1 | inconclusive: 89.1 µM [inhibitor, single point] | – |
| O=C(CCc1c[nH]c2ccccc12)N1CCN(c2ccc(O)cc2)CC1 | inconclusive: 56.2 µM [inhibitor, partial curve, poor fit] | – |
| CC(Nc1oc(-c2ccco2)nc1C#N)c1ccccc1 (centres undefined) | inconclusive: 89.1 µM [inhibitor, single point] | – |
| CC(=O)c1ccc2c(c1)C1C=CCC1C(C(=O)O)N2 (centres undefined) | inconclusive: 89.1 µM [inhibitor, single point] | – |
| Fc1ccccc1Nc1n[nH]c(=S)s1 | inconclusive: 39.8 µM [inhibitor, full curve, poor fit] | – |
| COc1ccc(-c2nc(=S)[nH][nH]2)cc1 | inconclusive: 79.4 µM [inhibitor, partial curve, poor fit] | – |
| Cc1nc2nc(CNC(=O)c3cccc(F)c3)nn2c(C)c1CCC(=O)Nc1ccc(F)cc1 | inactive | – |
| Nc1nc(=S)n(-c2ccccc2)[nH]1 | inconclusive: 50.1 µM [inhibitor, partial curve, poor fit] | – |
| Cc1cc(C)c(C2C(C#N)=C(N)Oc3n[nH]c(C)c32)cc1CN1CCOCC1 (centres undefined) | inactive | – |
| COc1cccc(CNC(=O)CCn2ccc3cc(S(=O)(=O)N4CCCC4)ccc32)c1 | inactive | – |
| Cc1cc(Br)ccc1NC(=O)CN(C)C(=O)CSC(=S)N1CCCC1 | inconclusive: 89.1 µM [inhibitor, partial curve, poor fit] | – |
| COc1cccc(NC(=O)C2C3C=CC4(O3)C2C(=O)N(CCCN2CCCC(C)C2)C4C(=O)NC2CCCCC2C)c1 (centres undefined) | inactive | – |
| O=C(N/N=C\c1ccc(Br)o1)C1COc2ccccc2O1 (centres undefined) | – | inactive: -5.22% [at 11.4 µM] |
| CC(=O)c1cccc(NC(=O)CN2C(=O)COc3ccc(S(=O)(=O)N4CCOCC4)cc32)c1 | inconclusive: 39.8 µM [inhibitor, full curve, poor fit] | – |
| O=C(O)c1cccc(Oc2ccc(C(=O)O)c([N+](=O)[O-])c2)c1 | inconclusive: 89.1 µM [inhibitor, single point] | – |
| Cc1[nH][nH]c(=O)c1C(c1ccc(Br)cc1)c1c(C)[nH][nH]c1=O | inconclusive: 50.1 µM [inhibitor, partial curve, poor fit] | – |
